The source gives no read counts; variants with many changes may rest on few reads.
B1: LINE1-mini (parent)
chain: GGCAGAGCUCAACACAGCGUGGCAAAGUGGCUGUGGCUAGACUGCC

Variants of: B1
Experiment: self-cleavage, relative activity (ratio to wild type); higher = more cleavage; in vitro, sequencing; the parent is a self-cleaving ribozyme
In the case of GGCACAGCUCACCACAGCUUGGCAAAGUAGCUGUGGCUAGACUGCC, the self-cleavage is reported as 0.01. For GGCAGAGCUCAACAGCGCGUGGCAAAUUGUCUGUGGCUAGACUGCC, the self-cleavage was 0.08. CGCAGAGCUCAACACUGCGUGGCAAAGUGGCUUUGGCUAGACUGCC gave a self-cleavage of 0. AGCAGAGCUCAACACAGCGUGACAAAGUGGCUUUGGAUAGACUUCC gave a self-cleavage of 0.07. With GGCAGAGCUCAAUACACUGUGGGAAAGUGGCUGUGGCUAGACUGCA the self-cleavage was 0.01. GGCAGAGCUCAACACAGCGUGGCAUAGUGGCUGUGGGUAGAAUGCC showed a self-cleavage of 0.04. In the case of GGCAGAGCUAAACACAGCGUGGCAAAGUGGCUGUGGCGGGACUGCC, the self-cleavage is reported as 0.01. GGCAGAGCUCAACACAGUGUGCCAAAGUGGCUGAGGCUAGACUGCC gave a self-cleavage of 0.09. Work on GGCAGAGCUCAACAUAACGUGGCAACGGGUCUGUGGCUAGACUGCC yielded a self-cleavage of 0.07. With GGCAGAGCUAAACAAAGCGUGGCAAAGUGGCUGUGGCUAGACAGCC the self-cleavage was 0.01. Variant GGCAGAGCUCAACACAGCCCGGCAAGGUGGCUGUGGCUAGACUGCC has a self-cleavage of 0.55. Variant GGCAUAGGUCAACACAGCGUGGCAAAGUGACCGUGGCUAGACUGCC has a self-cleavage of 0.07. GUCAGAGCUCAACACAGAGUGGCAAAGAGGCUGUGGCUAGACUGCC gave a self-cleavage of 0.02. Work on GGCAGAGCUCAACACAGCAUGACAAAGUGGCUGUAGCUAGACUGCC yielded a self-cleavage of 0.09. Variant GGCAGAACUCAACACAGCGUGGCAAAGUGGCUGUGCCUGGACUGCC has a self-cleavage of 0.02. For GGCAGAGCUCAACACAGCGUGGCAAAGUGGCUGAGUCGAGAUUGCC, the self-cleavage was 0. GGGCGUGCUCAACACAGCGUGGCAAAGUGGCUGUGGCUAGACUGCC showed a self-cleavage of 0.26. Work on GUCAAAGCUCAACACAGCGUGGCAAAGUGGAUGUGGCUAGACUGCA yielded a self-cleavage of 0. GGCAGCGCUUAACACCGCGUGGCAAAGUAGCUGGGGCUAGACUGCC gave a self-cleavage of 0.03. For GGCAGAGCUCAACACAGCGUGGCAAAGUGGCUAUGACUGGACUGCC, the self-cleavage was 0.05. With GGCAGAGCUCAACACAGAGUGGCAAAGUGACUUUGUCUAGAUUGCC the self-cleavage was 0.03. Variant GGCAGUGCUCAACUCAGCGUGGCAAAGUGGCUAUGGCUACACUGCC has a self-cleavage of 0.93. Work on GGCAGAACUCAACACAGCGUGGCAAAGUGGCUGGGGCUAGACCCCC yielded a self-cleavage of 0.01. GGCAGAGCUCGACACAGCCUGGCAAAGUGGCUCUGGCUAGACUGCC gave a self-cleavage of 0.01. Variant GGAAGAGCUCAACACAGCGUGGCACAGUGGCUGUGGCUAUACUGCC has a self-cleavage of 0.12. With GGCAGAGCUAAGCACAGCGUGGCAAAGUGGCUGUGGGUAGACUGCC the self-cleavage was 0.03. Work on GGCAGAGCUCAUCACAGCGGGGCAAAGUGGCUGUGGGUAGACUGCC yielded a self-cleavage of 0.01. Variant GGCAGAGCUAAACAAAGCGUGGCAAAGUGGCCGAGGCUAGACUGCC has a self-cleavage of 0.03. Work on AGCAGAGCUCAACACAGCGUGGCAAAGUGGCUGUAGCGAGACUGCG yielded a self-cleavage of 0.02. In the case of GGAAGAACUCAACGCAGCGUGGCAAAGUAGCUGUGGCUAGACUGCC, the self-cleavage is reported as 0.67. Work on GGCAGAGCUCAACACAGCGUUGCAGAGUGGCCGUGGCUAGACUGCC yielded a self-cleavage of 0.05. In the case of GCCCGAGCUCAACACAGCGUGGCCAAGUGGCUGUGUCUAGACUGCC, the self-cleavage is reported as 0.05. GGCAGGGCUCAACACAGCGAGGCAAAGUGCUUGUGGCUAGCCUGCC showed a self-cleavage of 0.02. In the case of GGCAGAGAUCAAGACAGCGUGGCAAAGUGGCUGUGGCUAGAAUGCC, the self-cleavage is reported as 0.12. In the case of GGGAGAGCUCACGACAGCGUGGCAAAGUGGCGGUGGCUAGACUGCC, the self-cleavage is reported as 0.05. GGCAUAGCUCAACACAGCGUGGCAAAGUGGCUGUGGCUAGAGUGUC gave a self-cleavage of 0.06. For GGUAGACCUCAACACAGGAUGGCCAAUUGGCUGUGGCUAGACUGCC, the self-cleavage was 0.03. With GGCACAGCGCAACACACCGUCGCACAGUGGCUGUGGCGAGACUGCC the self-cleavage was 0.01. Work on GGCAGAGCUCAACACAGCGUGGCAAAGUGGCGGUGGCUAGCGUGCC yielded a self-cleavage of 0.03. For GGCAGAACUCAACACAGCGUGACAAAGUGGCUGUGGCUAGACUACC, the self-cleavage was 0.28. With GGCAGAGCUCAACACAGCUUGGCGAAGCGGCUGUGGCUAGACUGCC the self-cleavage was 0.83. With GGCAGAGCUCCGCACAGCGUGGCAAAGUGGCUGCCGUUCGACUGCC the self-cleavage was 0.01. GGAAGAUCUCAACUAAGCGUGGUAAAGUGGCUGUAGCUAGACUGCC showed a self-cleavage of 0.34. Variant GGCAGAGCUCAACACUGCGUGGCAAAGUGUCUGUGGCUAUACUGCC has a self-cleavage of 0.01. Variant GGCAGAGCUCAACACAGCGCGGGAAGGCGGCUGUGGCUAGAAUGCC has a self-cleavage of 0.1. Work on GCCAGAGCUCAACACAGCGGGACAAAGGGGCUGUGGUUAGACUGGC yielded a self-cleavage of 0.03. GGCACAGCUCAACACAGCGUGGCAAAGUUGUUGUGGCUAAAAUGCC showed a self-cleavage of 0.04. For ACCAGAGCACAACACAGCGUGGCAAAGUGGCUGUGGCUAGAGUGCC, the self-cleavage was 0.11. Variant GGCAGAGCUUAACACAGCGUGGCAAAGUGGCUUUGGCUAGAUUGCC has a self-cleavage of 0.04. GGCAGAGCUCAACACAUCGUGGCAAAGUGGCUGUGGCUAGGCUCCC gave a self-cleavage of 0.02. Variant UGGAGAGUUCAACACAGCGUGGCAAAGUGGCUGUGGCUAGACUGCC has a self-cleavage of 0.13. Work on GCCAGAGCCCAACACAGUGUGGCAAAGUGGCUGUGGCUAGACUGCC yielded a self-cleavage of 0.07. Variant GGCAGAGCUAAACACAGAGUGGCAAAGUGGCUAUGGCUAGACUGCC has a self-cleavage of 0. GGCAGCGCUCAAAACACCGUGGCAAAGUGGCUGUGGCUAGACUGCC showed a self-cleavage of 0.02. For GGCAUUGUUCAACACAGAGUAGCCAAGUGGCUGUGGCUAGCCUGCC, the self-cleavage was 0.24. For GGCAGAGCUCAACACAGCGUGGCAAAGUGUCCGUGGUUAGACUGCC, the self-cleavage was 0.03.

— the RNAGym collection of RNA variant scans (doi:10.7554/elife.90254)
